In PubChem BioAssay AID1645882 (National Center for Advancing Translational Sciences (NCATS), 2021):
Screen size: about 16,000 compounds; about 120 (0.75%) were called active. Another 4% or so got no clear call; they are omitted. Calls follow the shape of the dose curve; as a rule, active = well fitted inhibition curve with a large enough effect; inconclusive = small, poorly fitted or top-dose-only effect; inactive = no such curve, though single readings can be large or run the other way. Some of the results follow.

molecular target: Rap guanine nucleotide exchange factor 3 (Homo sapiens) (UniProt O95398); experiment: Validation qHTS for antagonist of cAMP-regulated guanine nucleotide exchange factor 3 (EPAC1); conditions: EPAC1 Rap1B-BODIPY-GDP exchange, fluorescence; series mostly up to 150 µM; activity change, negative = inhibition: at the top concentration;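 also: plate controls were DMSO for no effect and ATA control for full effect; nearly all actives have a fitted effect of over 75% in size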
Outline: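 Nucleotide exchange followed as fluorescence loss when BODIPY-GDP leaves Rap1B (480 nm excitation, 540 nm emission), read at 5 min intervals over 30 min. Reaction: 100 nM EPAC1, 250 nM RAP1B-BODIPY-GDP, 50 uM GDP; ATA and DMSO define normalization.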

UniProt O95398, sequence (O95398 whole entry, looked up): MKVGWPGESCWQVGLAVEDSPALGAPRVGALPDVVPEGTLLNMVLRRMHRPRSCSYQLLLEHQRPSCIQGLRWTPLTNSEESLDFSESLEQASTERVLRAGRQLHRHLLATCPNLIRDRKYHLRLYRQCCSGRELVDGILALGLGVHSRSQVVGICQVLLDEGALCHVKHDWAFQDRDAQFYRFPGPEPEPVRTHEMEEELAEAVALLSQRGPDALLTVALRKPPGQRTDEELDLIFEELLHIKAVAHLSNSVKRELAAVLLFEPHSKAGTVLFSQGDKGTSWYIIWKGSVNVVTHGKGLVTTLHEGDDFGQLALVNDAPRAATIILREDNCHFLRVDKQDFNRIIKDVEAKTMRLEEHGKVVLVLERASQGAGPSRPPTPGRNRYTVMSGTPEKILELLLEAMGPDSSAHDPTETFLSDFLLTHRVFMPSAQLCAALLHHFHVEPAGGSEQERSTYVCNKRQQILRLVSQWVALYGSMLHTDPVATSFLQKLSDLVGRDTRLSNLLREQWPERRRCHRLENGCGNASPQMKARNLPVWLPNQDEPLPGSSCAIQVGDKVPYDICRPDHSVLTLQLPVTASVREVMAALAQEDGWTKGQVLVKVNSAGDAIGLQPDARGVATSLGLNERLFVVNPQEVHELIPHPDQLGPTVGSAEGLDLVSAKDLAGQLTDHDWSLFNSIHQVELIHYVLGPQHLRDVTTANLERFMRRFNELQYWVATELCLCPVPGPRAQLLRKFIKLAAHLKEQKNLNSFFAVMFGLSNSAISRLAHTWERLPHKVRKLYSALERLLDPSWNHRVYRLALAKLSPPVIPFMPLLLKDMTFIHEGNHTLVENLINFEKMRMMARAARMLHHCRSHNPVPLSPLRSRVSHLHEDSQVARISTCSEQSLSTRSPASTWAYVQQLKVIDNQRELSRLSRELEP

Activity change, negative = inhibition, inactive:
COC(=O)c1ccccc1C(=O)N1CCOc2ccc(CN3CCN(c4ccccn4)CC3)cc2C1 7.29%
N[C@@H](Cc1cc(I)c(Oc2cc(I)c(O)c(I)c2)c(I)c1)C(=O)O
CN1CCN(c2ncnc3ccc(-c4cccnc4)cc23)CC1 10.2%
CC1(C)CCC(C)(C)c2cc(NC(=O)c3ccc(C(=O)O)cc3)ccc21 10.4%
Cc1cc(=O)oc2cc(O)c(O)cc12 1.8%
CN(C)Cc1ccccc1-c1cc(N(C)C)ncn1 18%
COc1ccc(C(=O)N2CCC3(CCN(Cc4ccccc4OC)CC3)CC2)cc1 13%
CN(C)c1ccc(/C=C/c2c(Cl)cnc3ccccc23)cc1 14%
COc1ccccc1CN1CCCC2(CCN(C(=O)c3ccncc3)CC2)C1 17.8%
O=C(Cc1nc2ccccc2[nH]1)N1CCC(n2c(C3CCC3)nc3cccnc32)CC1 14.5%
C[C@@H]1CN(Cc2ccc3c(c2)CN(Cc2coc4ccccc4c2=O)CCO3)C[C@H](C)O1 9.15%
CC1=NN(c2ccc([N+](=O)[O-])cc2)C(=O)C1[N+](=O)[O-] (stereo not given) 10.8%
COCCNc1cc(-c2ccccc2CN(C)C)ncn1 18.7%
CN1CCN(c2ncc3nc(CCc4ccccc4)c(=O)n(CCc4ccccc4)c3n2)CC1 -1.33%
Cc1cc(C)c2nccc(C)c2c1 -9.85%
N#Cc1cccc(NC(=O)N2CCC3(CC2)CCN(C(=O)c2ccco2)CC3)c1 1.28%
COCCNc1nc(-c2ccccc2Cl)nc2ccccc12 -2.71%
CCCCC/C=C\C/C=C\CCCCCCCC(N)=O 12.2% [at 15.3 µM]
c1cncc(CNc2nc(-c3cccnc3)nc3ccccc23)c1 9.08%
OCc1cccnc1 36.2%
NC(N)=NCCC[C@H](N)C(=O)O
CC(C)Cc1ccc(CC(=O)O)cc1 19.2%
Cc1cccc(CNC(=O)c2cnn(-c3nccc(-c4cccs4)n3)c2C2CC2)n1 9.17%
CC1(C)CC2/C(CO)=C/C=C/[C@](C)(O)CC[C@]21O (stereo not given in full) 8.31%
COc1cc(C(=S)N2CCOCC2)cc(OC)c1OC 9.42%
O=C(Nc1cccc(N2CCC(NCc3cnn(-c4ccccc4)n3)CC2)c1)c1cccnc1 -0.303%
CC(C)(C)Cn1nc(-c2ccc(Cl)cc2)c2c(N)ncnc21 9.15%
COc1ccccc1Oc1c(NS(=O)(=O)c2ccc(C(C)(C)C)cc2)nc(-c2ncccn2)nc1OCCO -6.58%
COCC(=O)N1CCC2(CC1)CCN(c1ccccc1)CC2 15.3%
CNC(=O)Oc1ccc2c(c1)[C@@]1(C)CCN(C)[C@@H]1N2C 0.731%
Cc1ncc2c(c1CNC(=O)c1ccc3c(c1)OCO3)CCN(C(=O)/C=C/c1ccc(Cl)cc1)C2 0.135%
CN(C)CCC=C1c2ccccc2COc2ccccc21 15.2%
CCC(O)CNC(=O)c1cnn(-c2nccc(-c3cc(C)sc3C)n2)c1C1CC1 (stereo not given) 11.3%
CN(C)Cc1ccccc1-c1cncnc1Nc1ccncc1 14.3%
COc1ccccc1CN1CCOc2ccc(CN3CCCCC3CO)cc2C1 (stereo not given) -5.06%
CC(C)[N+](C)(CCOC(=O)C1c2ccccc2Oc2ccccc21)C(C)C
O=C(NCc1nnc2n1CCN(Cc1ccc(C(F)(F)F)cc1)CC2)c1ccccn1 16.5%
N[C@@H](CO)C(=O)O
CN1CCC[C@@H]1Cc1c[nH]c2ccc(CCS(=O)(=O)c3ccccc3)cc12 8.07%
O=S(=O)(c1ccccc1)N1CCC2(CC1)CN(c1ccccn1)C2 0.358%
Cc1cnc(C)c(-c2cc(F)cc3c2OC(CNC(=O)Cc2ccccc2C)C3)n1 (stereo not given) 15.4%
CN(C)C(=O)c1ccc(-c2ccc3ncnc(NCCN4CCOCC4)c3c2)cc1 5.74%
COC(=O)N1CCC2(CC1)CCN(c1ccncc1)CC2 1.06%
C=C1C(=O)C23C(O)C1CCC2[C@]12COC3(O)C(O)C1C(C)(C)CC[C@H]2O (stereo not given in full) 0.815%
O=C(Oc1ccccc1)N1CCC2(CC1)CCN(c1cccc(-c3ccccc3)c1)CC2 12.4%
O=C(O)Cc1c[nH]c2ccc(O)cc12 -2.11% [at 75.8 µM]
COC(=O)c1ccccc1C(=O)c1ccc(OCCN2CCCCC2)cc1 16.5%
O=C(Nc1cccc(F)c1)N1CCCC2(CCN(C(=O)c3csnn3)CC2)C1 16.3%
N[C@H](C(=O)O)c1nn[nH]n1 12.1%
CN1CC(=O)N/C1=N/C(=O)Nc1cccc(Cl)c1
CC(C)=CCC/C(C)=C/CC/C(C)=C/CC/C=C(\C)CC/C=C(\C)CCC=C(C)C
CC(=O)N[C@H](Cc1c[nH]c2ccccc12)C(N)=O 9.7%
CC(C)OC(=O)c1cc2c(OCC(O)CNC(C)(C)C)cccc2[nH]1 (stereo not given) 7.14%
CN1CCC(=O)N([C@H](CO)Cc2ccccc2)CC1 4.51%
Cn1nnnc1SCC1=C(C(=O)O)N2C(=O)C(NC(=O)C(O)c3ccccc3)C2SC1 (stereo not given) 6.01%
CCN(CC)CCOC(=O)c1cc(Cl)c(N)cc1OC
NC/C=C/C(=O)O
CN(Cc1ccco1)c1cc(-c2cccc(NS(C)(=O)=O)c2)ncn1 -17.3%
CC12CCC3c4ccc(O)cc4CCC3C1CCC2=O (stereo not given) 13.2%
O=c1[nH]c(-c2ccccc2O)nc2ccccc12 -8.15%
CC(=O)N[C@@H](Cc1c[nH]c2ccccc12)C(=O)OCc1cc(C(F)(F)F)cc(C(F)(F)F)c1 9.21% [at 75.8 µM]
Cc1ccc2c(c1)c1c3n2CCNC3CCC1 (stereo not given) 8.5%
CCC(=O)OCC(=O)C1(OC(=O)CC)C(C)CC2C3CCC4=CC(=O)C=CC4(C)C3(Cl)C(O)CC21C (stereo not given) -12.9%
c1ccc2sc(-c3cc4c(c(OC5CCOC5)c3)OCCN(Cc3cccn3-c3nccs3)C4)nc2c1 (stereo not given) -3.98%
COC(=O)C1=C(C)NC(C)=C(C(=O)O[C@@H]2CCCN(Cc3ccccc3)C2)[C@@H]1c1cccc([N+](=O)[O-])c1 -6.84%
COc1cccc(CNc2ncnc3sc(C(=O)N4CCOCC4)c(C)c23)c1OC 23.3%
C=C(C)C1(O)OC(=O)C=C1OC (stereo not given) 16.4%
COCc1ccc(C(=O)N2CCOc3ccc(CN4CCN(c5ccc(F)cc5)CC4)cc3C2)o1 17.9%
Cn1cccc1C(=O)N1CCC2(CCN(C(=O)Nc3cccc(F)c3)CC2)CC1 11.2%
O=C(N[C@H](CO)[C@H](O)c1ccc([N+](=O)[O-])cc1)C(Cl)Cl
